Measurements: PMC12136788
Some of the results follow.

T1: UNK ZnF1-3 (human, UniProt Q9C0B0 31-174)
T1 sequence: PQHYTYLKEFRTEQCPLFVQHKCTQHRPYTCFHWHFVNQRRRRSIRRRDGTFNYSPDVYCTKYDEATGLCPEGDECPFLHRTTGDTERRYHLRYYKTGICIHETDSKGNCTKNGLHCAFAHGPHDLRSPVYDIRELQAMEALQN

B1: chr4:160235802:160235803:+_ENSG00000109756_ENST00000264431|hu_hu|FALSE|FALSE (ssRNA)
RNA: GGGAGUUCUACAGUCCGACGAUCGCUCAUCAGAGGAUCUGAUGCUCUCUCAAUGUCUUCUUCAUCGUCGUCGUCUUCGGAAUCCACUGCUGUUUCUGGCAACCCACUCAGGUCCAUAUCACCAGCCUCGCUUUCUGUGGCCUGCAACAGAGGAUUGAGCAUCA
B2: chr18:9122563:9122564:+_ENSG00000178127_ENST00000318388|hu_hu|FALSE|FALSE (ssRNA)
RNA: GGGAGUUCUACAGUCCGACGAUCGACCUGAAUGUGAUACUUUCCAACUGGCUUUCGAUUAUACAUUGUAUAAAAAGUUGCUACUUCAUAUACUCUCAUUGGAGGUACUUGUAAAACUUCUGCAACCUUGUUCAUAGCAGAGAUCAACAGAGGAUUGAGCAUCA
B3: chr3:158399885:158399886:+_ENSG00000168827_ENST00000264263|hu_mus|motif|central (ssRNA)
RNA: GGGAGUUCUACAGUCCGACGAUCCUCAUCAGAAAACUCCAACUUCGUGUAGUCCUCUGGGGGCAAGGGCUCCAGCACUCCGGUUACUUUUCCAAACUGGCCGGCACCACCCGACUGCUUUUUAUGUGUAAAAUCAAACGGCACCAACAGAGGAUUGAGCAUCA
B4: chr2:115890611:115890612:-_ENSMUSG00000027210_ENSMUST00000102538|mus_mus|FALSE|FALSE (ssRNA)
RNA: GGGAGUUCUACAGUCCGACGAUCCAAUAAACUCCUGGAUGUGUCGUAUAUUUAAUAUCCCAGUCCGGAUAAGAAAGUGAGCUAGGUUGAAGAGUCCUUUUUUUCCAAACCAAGGAGACUUCUCCCAAUUUUCCAAUGUUAUUUCAACAGAGGAUUGAGCAUCA
B5: chr2:23028566:23028567:+_ENSMUSG00000026775_ENSMUST00000028117|mus_hu|FALSE|FALSE (ssRNA)
RNA: GGGAGUUCUACAGUCCGACGAUCGGUUUUUUGUGUGAGUGCUUGAGCUUUCAGAAAACCUUCCGCAAAACCAGUUUUAAAUGCAUCUUGGUGAGCUUCAGGUAUAUUUUUGGUUUUCAUGAGUUUGUCCAAACUCUCAACAUCCAACAGAGGAUUGAGCAUCA
B6: chr6:38489255:38489256:+_ENSMUSG00000019689_ENSMUST00000019833|mus_hu|FALSE|FALSE (ssRNA)
RNA: GGGAGUUCUACAGUCCGACGAUCACGAGUUGUAUCUCCCUUGCCAUGAAAUUCCUGAUGUAGGGCCACAUGUUUCCGGAUGCUACGCAGGAGGCAGAGAUAGGUGGCAGCUUGGAAAUGAAGCUCAUGUUGGGCUCUGCACAACAACAGAGGAUUGAGCAUCA
B7: chr12:39756943:39756944:-_ENSG00000139116_ENST00000544797|hu_mus|hu_hu_hu_mus_False|28_98 (ssRNA)
RNA: GGGAGUUCUACAGUCCGACGAUCGGUUUGGCUGUUACCCCCGAGGGAAUCCUGCAAGAGUCUUGUCAGCUUAGAGUCUCUGUAAGGGACAUGGGUGGCUCUCUUGCUCUUGUCUCCCAAGGCGCUGAUUACAUUCCCAAGAGCCAACAGAGGAUUGAGCAUCA
B8: 107591758_107592564_3500_CDS_ENSG00000091136_ENST00000393561|human|control|control (ssRNA)
RNA: GGGAGUUCUACAGUCCGACGAUCCCCCGUGAACUCAUUGCAAGAUGGCCCGAAGGAAUGAGCAGCAUUGCAGUUGCAUGGGUCACAGCCAGUGCCACUGGCCAGCUGCCAGGUAUUGGGCGCACAGCGGUCACAGUUCUGCCCCAACAGAGGAUUGAGCAUCA
B9: chr10:8116392:8116393:+_ENSG00000107485_ENST00000346208|hu_mus|FALSE|FALSE (ssRNA)
RNA: GGGAGUUCUACAGUCCGACGAUCCAUCAAACAACUGAAGGGAAACAAAACUGACAGUGUGCCCAUUUGGACAUCAGACUUAGUGGUUUCUUCUGUAUCUCCAUACUUUAAUCCCCCUAUAUUCCUUAAAACUCUUGGCGUCCUCAACAGAGGAUUGAGCAUCA
B10: chr5:134670393:134670394:-_ENSG00000113648_ENST00000304332|hu_mus|FALSE|FALSE (ssRNA)
RNA: GGGAGUUCUACAGUCCGACGAUCAGGGGAGGGACCGCUGCUCCGCUGCUCUGUGUUAAUCAGGACUUCAUUAGAGUGAAACUAUAAAAUCCUCUAGGUUGACUAAGUCAGACACGGUCUGGAAAGCAGUGCUUAACAAGGACGCAACAGAGGAUUGAGCAUCA
B11: 5117298_5117418_513_CDS_ENSMUSG00000024862_ENSMUST00000116563|mouse|control|control (ssRNA)
RNA: GGGAGUUCUACAGUCCGACGAUCGGGAGCUAGCAGGGCACGAUGCUCCCCUCUCAGGGUCUCUAAACCCUGGAUCACCGCCUUGGUGCCCAGCACUAUCUCGUCCUGACUCAGCUUCUCCUCUCGAGGAAGCACCAUCGUGGCCAACAGAGGAUUGAGCAUCA
B12: chr10:102306293:102306294:+_ENSG00000166135_ENST00000299163|hu_hu|motif|central (ssRNA)
RNA: GGGAGUUCUACAGUCCGACGAUCAGCCCCCUUAUACCAGAAGUUCACAGUGAUGGUAAUCCCCCCAUUUAGUAAUGACUCGGUGUGAUGCCACCAGUACAUUGGGAUGUAAAGAACAUCACCAGGGCCAACCACUGUUUCGUACAACAGAGGAUUGAGCAUCA
B13: 27594204_27595603_414_CDS_ENSG00000115234_ENST00000233575|human|control|control (ssRNA)
RNA: GGGAGUUCUACAGUCCGACGAUCUUGCAUGUACUUCUCUAACUGCUCUCUCCUCUGUUCUACCUCAGCAGGAGUCAGAGAGAAAAGCUUCUUUGGGGGGAAUGCAGGAAGCACAUUGGCCCCAUACUCCUUCCGAAGCUGCUCCAACAGAGGAUUGAGCAUCA
B14: 91351981_91352101_656_3pUTR_ENSMUSG00000055013_ENSMUST00000027521|mouse|control|control (ssRNA)
RNA: GGGAGUUCUACAGUCCGACGAUCGCUCGUAGAUGGAGUAGAUGUUGGGGUGGACCGACUCGAAGCGCUGGAUCUCGGCCCGGAUGGCAGCCGAGUUGGCCAGCUGCUGCUGGUAGUUCAUGGUGCAGGCGCGGCGCCCAAAGCCAACAGAGGAUUGAGCAUCA
B15: chr7:150251850:150251851:+_ENSMUSG00000037706_ENSMUST00000037941|mus_hu|FALSE|FALSE (ssRNA)
RNA: GGGAGUUCUACAGUCCGACGAUCAAAGCCCCAGAUGCCGGCGGCCACCUCACAGGCAAACAGGAUGACCAGGCAGGUGAAGAACGUCCCCAGCAGGCACUGGGAUUCCUGGAUGGCCCCGUAGCAGCCCAGGAAGCCAACGAACAACAGAGGAUUGAGCAUCA
B16: chr7:141445308:141445309:+_ENSG00000106028_ENST00000265304|hu_hu|hu_hu_hu_mus_False|28_88 (ssRNA)
RNA: GGGAGUUCUACAGUCCGACGAUCUAUGAUUGUUGUUGCUUGCCGCCUCACAUUAUUUUUAUCCAUGUACUCGCCAUAGUCCACUUUCCCUUCCACAAAUAUACGAGACCCCUUUUUCACAUACUGAUAUGCCACAUCUCUGAGCAACAGAGGAUUGAGCAUCA
B17: 72957486_72958841_795_CDS_ENSMUSG00000036698_ENSMUST00000044113|mouse|control|control (ssRNA)
RNA: GGGAGUUCUACAGUCCGACGAUCUGGCUGUGCCUUGUAAAACGCUGUUGCCGAUACAUCAAUAUUCAGCAUCAUUUUCCAAAGAGAAGGUCGGACGGACUGAUGGAAGCCAAACCACACUUCUCUGCCCCCACCCAGAGGGUUCAACAGAGGAUUGAGCAUCA
B18: chr7:90019630:90019631:+_ENSMUSG00000057706_ENSMUST00000082237|mus_hu|FALSE|FALSE (ssRNA)
RNA: GGGAGUUCUACAGUCCGACGAUCUAUAUCACUGAAUAGAAAAUAUGCUGGGUGAAGCAGAUCUAGAAGAUUUGUCUGAACCUAUAAAAUCUCCAUCCCAACAGAAUACUGUUCAAAACAUUACACAUUUUAUGGUUGUAAUUCCAACAGAGGAUUGAGCAUCA
B19: 24660304_24660424_358_ncRNA_ENSMUSG00000036893_ENSMUST00000134775|mouse|control|control (ssRNA)
RNA: GGGAGUUCUACAGUCCGACGAUCAUGUUCAUGGGGGAUGUCACACAGUUCUGGGAGACAUACUUAUAGUUGGUAGGACACAGCUCACUGUCCACAGCAUUGACACAGGGAAUGGGAAUGCGCUCAUACCCUCGAGCGAUAUCCCAACAGAGGAUUGAGCAUCA
B20: chr4:140556289:140556290:+_ENSMUSG00000036622_ENSMUST00000037055|mus_mus|mus_mus_mus_hu_False|8_88 (ssRNA)
RNA: GGGAGUUCUACAGUCCGACGAUCGAUGGAGCUCACCAGGCCCCCUUUGGCUGUGCAGAACCCUGUGCGGGUCACCACUGCCAGGACGUGCGGUCCCACAUAGGCCCGGGCCUGCAAGAUGAGGGUCCCACAGAAGAGUGUGUGCAACAGAGGAUUGAGCAUCA
B21: chr3:94683992:94683993:+_ENSMUSG00000038902_ENSMUST00000107270|mus_hu|motif|central (ssRNA)
RNA: GGGAGUUCUACAGUCCGACGAUCGUUAAUGUUGCCAUCGGGGCCAGGCAGAACACUAGCCACCAGGAAGGAGCGCUGAACGGGCUCUGGACAGUCCCCAAUGACACCUAGCACUUCACCCAGCCAGACAAGCACCAGCUGAAGCAACAGAGGAUUGAGCAUCA
B22: chr20:39729905:39729906:+_ENSG00000198900_ENST00000361337|hu_hu|FALSE|FALSE (ssRNA)
RNA: GGGAGUUCUACAGUCCGACGAUCGUAUUUAAUGGAACCUUGGAUGUUCUCUGUCCAGGAAACCAGCCAAGUAACCUUGUUAUCAUGCCGGACUUCUUUCCACUUAUGUCCUGGAGGAGGAGAAGGAACCUUGGCAUCUUUGCUCAACAGAGGAUUGAGCAUCA

Target: T1, UNK ZnF1-3
Test: nsRBNS (natural sequence RNA bind-n-seq); RBNS binding buffer (assumed for nsRBNS): 25 mM Tris pH 7.5, 150 mM KCl, 3 mM MgCl2, 0.01% Triton X-100, 500 ug/ml BSA, 20 U/ml SUPERase-In, 4 C; UNK is unkempt and MSI1 is Musashi-1; names of the RNAs are library labels; protein concentration not given here; high values mean tight binding

Binder | binding signal [enrichment R]
B1 | 0.843
B2 | 0.703
B3 | 0.892
B4 | 0.661
B5 | 1.53
B6 | 1.02
B7 | 0.765
B8 | 1.39
B9 | 1.05
B10 | 1.36
B11 | 0.6
B12 | 1.37
B13 | 0.618
B14 | 0.833
B15 | 1.28
B16 | 0.774
B17 | 1.17
B18 | 0.715
B19 | 1.01
B20 | 0.898
B21 | 1.15
B22 | 0.537
